Here are results for 2 molecules from patent US20200283478A1 (Genentech, published 2020).

Test [1] deals with T1, LDLR ectodomain (R & D Systems) (UniProt P01130 22-788, limits assumed).
T1 construct: extracellular domain
Briefly: biolayer interferometry, LDLR ectodomain immobilized. (In general: Biolayer interferometry detects binding as a change in optical thickness at a sensor tip.)

For test [2], the target named is T1, LDLR ectodomain (R & D Systems). The test is described as above. The source holds these as a separate data set.
T1 sequence (P01130 22-788 limits assumed): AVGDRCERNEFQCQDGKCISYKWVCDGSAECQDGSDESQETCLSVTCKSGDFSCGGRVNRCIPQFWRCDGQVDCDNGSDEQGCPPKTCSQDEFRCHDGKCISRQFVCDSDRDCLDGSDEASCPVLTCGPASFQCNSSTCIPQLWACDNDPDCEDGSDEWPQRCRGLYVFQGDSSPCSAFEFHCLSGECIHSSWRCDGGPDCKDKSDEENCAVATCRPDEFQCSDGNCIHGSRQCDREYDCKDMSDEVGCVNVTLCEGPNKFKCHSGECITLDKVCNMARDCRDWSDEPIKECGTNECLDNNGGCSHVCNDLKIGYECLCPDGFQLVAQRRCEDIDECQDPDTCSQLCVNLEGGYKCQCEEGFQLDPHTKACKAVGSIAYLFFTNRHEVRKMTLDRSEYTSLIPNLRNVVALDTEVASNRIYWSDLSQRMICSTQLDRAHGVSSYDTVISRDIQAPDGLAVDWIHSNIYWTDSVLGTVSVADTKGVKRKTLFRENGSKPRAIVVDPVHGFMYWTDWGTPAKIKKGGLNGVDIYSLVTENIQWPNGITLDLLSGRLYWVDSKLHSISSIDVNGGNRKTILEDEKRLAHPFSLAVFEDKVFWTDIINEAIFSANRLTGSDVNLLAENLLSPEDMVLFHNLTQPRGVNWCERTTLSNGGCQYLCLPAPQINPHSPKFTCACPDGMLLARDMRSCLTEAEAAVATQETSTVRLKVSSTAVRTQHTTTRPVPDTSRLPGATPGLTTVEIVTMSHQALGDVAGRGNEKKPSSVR

B1: PCSK[…]A:R215A:R218A (enzyme)
chain: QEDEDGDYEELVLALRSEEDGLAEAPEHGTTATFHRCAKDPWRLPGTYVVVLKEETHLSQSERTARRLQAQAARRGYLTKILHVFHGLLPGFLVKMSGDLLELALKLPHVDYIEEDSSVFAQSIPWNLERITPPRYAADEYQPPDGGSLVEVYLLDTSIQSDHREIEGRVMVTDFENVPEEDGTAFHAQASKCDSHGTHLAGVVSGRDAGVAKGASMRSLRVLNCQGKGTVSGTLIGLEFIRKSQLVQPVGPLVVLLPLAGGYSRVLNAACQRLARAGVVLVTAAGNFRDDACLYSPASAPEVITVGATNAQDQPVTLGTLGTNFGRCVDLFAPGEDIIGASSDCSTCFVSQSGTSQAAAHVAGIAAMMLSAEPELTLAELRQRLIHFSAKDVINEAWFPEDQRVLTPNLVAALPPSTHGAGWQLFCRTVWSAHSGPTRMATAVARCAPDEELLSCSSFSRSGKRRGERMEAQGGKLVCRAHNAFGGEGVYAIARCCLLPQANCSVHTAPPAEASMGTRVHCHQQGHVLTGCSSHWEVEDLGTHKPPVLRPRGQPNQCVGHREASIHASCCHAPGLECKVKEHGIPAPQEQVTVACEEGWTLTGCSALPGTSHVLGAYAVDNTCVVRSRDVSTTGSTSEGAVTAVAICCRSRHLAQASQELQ
notes: expressed in CHO cells; also called PCSK9-AAA; K9-AAA
B1: in test [1], the Kd (usually the free concentration of one partner at which half of the binding sites on the other are occupied at equilibrium, for simple one-to-one binding) worked out at 214 nM. Further, in test [2], the koff – broadly, a measure of how fast the partners let go of each other – came to 0.00543 s⁻¹ and the on-rate constant (kon) (in general, the second-order rate constant of association) turned out to be 25400 M⁻¹ s⁻¹.

B2: PCSK[…]A:R218A (enzyme)
chain: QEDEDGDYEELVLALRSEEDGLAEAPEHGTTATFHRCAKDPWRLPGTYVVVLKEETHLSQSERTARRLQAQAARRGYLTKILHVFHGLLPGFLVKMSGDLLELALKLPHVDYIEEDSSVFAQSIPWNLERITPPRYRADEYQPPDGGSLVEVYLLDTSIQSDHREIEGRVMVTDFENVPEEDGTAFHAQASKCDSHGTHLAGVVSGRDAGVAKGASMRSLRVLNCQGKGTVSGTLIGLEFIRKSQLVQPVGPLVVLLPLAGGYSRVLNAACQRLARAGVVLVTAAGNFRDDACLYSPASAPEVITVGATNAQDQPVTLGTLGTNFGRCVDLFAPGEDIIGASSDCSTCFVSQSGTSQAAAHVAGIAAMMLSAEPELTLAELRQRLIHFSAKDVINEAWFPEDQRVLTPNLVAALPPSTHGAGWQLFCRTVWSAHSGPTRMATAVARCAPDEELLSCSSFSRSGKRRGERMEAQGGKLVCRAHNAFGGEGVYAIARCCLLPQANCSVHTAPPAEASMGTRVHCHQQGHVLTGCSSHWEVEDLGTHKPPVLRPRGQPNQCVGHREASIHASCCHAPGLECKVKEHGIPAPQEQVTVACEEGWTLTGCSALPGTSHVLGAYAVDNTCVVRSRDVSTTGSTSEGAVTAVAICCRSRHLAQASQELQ
notes: also called PCSK9-AA; K9-AA
The molecule B2 came in with an equilibrium dissociation constant (Kd) in test [1] of 260 nM. Moreover, in test [2], the koff was determined as 0.00931 s⁻¹ and the association rate constant (kon) came to 35900 M⁻¹ s⁻¹.
